Over roughly 33,000 sequences, “E-score (-0.5 to 0.5)” has its median near -0.013; the highest 2% begin near 0.3. Some of the results follow.

The source of these data is the supplement of paper PMC3334620.

In the assay the target is T1, Msn1 (UniProt P22148).
T1 sequence: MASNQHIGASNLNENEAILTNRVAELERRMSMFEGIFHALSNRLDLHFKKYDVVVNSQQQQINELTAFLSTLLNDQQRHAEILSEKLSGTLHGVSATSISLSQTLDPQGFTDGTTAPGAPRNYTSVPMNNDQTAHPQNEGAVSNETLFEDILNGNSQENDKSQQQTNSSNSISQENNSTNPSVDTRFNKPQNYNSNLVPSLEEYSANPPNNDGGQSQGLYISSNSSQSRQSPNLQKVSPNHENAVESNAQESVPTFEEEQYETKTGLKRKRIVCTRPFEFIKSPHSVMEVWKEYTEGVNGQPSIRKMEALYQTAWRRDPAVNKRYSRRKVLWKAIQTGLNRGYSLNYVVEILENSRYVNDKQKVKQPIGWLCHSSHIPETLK
Nature of the assay: PBM E-score (8-mer binding enrichment) (E-score (-0.5 to 0.5)); higher = stronger / more preferred TF binding; most listed sequences are background and not binding sites. To be noted: protein concentration: 200 nM; construct: GST-full length. The method, boiled down: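 E-scores (a modified Wilcoxon-Mann-Whitney statistic) were assigned by the Universal PBM Analysis Suite to every ungapped eight-base word pooled with its reverse complement. The input came from universal all-10-mer Agilent arrays made double-stranded by primer extension and probed with GST-tagged yeast transcription factors at about 100-200 nM. Fluorescent anti-GST detected bound protein, and masliner normalised the scans.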
As to CAGCCCAC, the “PBM E-score” value was -0.252. The same measure for GCGGGGCC: -0.246. Under ACAGTCCG stands 0.0173; under CGTATTAA, 0.0418. Under ACCCTATG stands -0.0968. For ACTAGGCT, the “PBM E-score” value was -0.0597. Under CACGCACC stands -0.149; under ACCAGTAC, 0.0061.

For CTGTCTGC, the “PBM E-score” value was -0.127. Under CCTTCTAG stands -0.0887; under AGGCTAGA, -0.196; under CGACCCCA, -0.177. Under CTCAACCA stands -0.104; under ACGGTTGG, -0.236.

With CTCATCAA, the “PBM E-score” value was 0.138. Turning to ATGATCTA, the “PBM E-score” value worked out at 0.076. The same measure for CGATAGCA: -0.132. The same measure for ATTCGCTA: -0.1. Under AATCATCC stands -0.135; under AAACCGTA, -0.0236. Regarding CATACGGC, the “PBM E-score” value was -0.0218. Under GATATAGA stands -0.0256; under AGGGCGCC, -0.305.

With CAGGCTTA, the “PBM E-score” value is -0.0138. Under TCCGTAGA stands 0.0628; under TAAACCTA, 0.0654; under AGGTCACT, -0.107. Turning to ACGGTAGG, the “PBM E-score” value was -0.167. The same measure for AGCGAACC: -0.134. For the sequence CTGGGTAC, the “PBM E-score” value is -0.294. Under AGTGGAAC stands 0.00101. Under TTGAGCAA stands -0.0524. Under GCAGAGAC stands -0.107.

GAGTACGC: the “PBM E-score” value is -0.125. The same measure for AAGCCCCG: -0.042; for GACTCAGA: 0.0175. As to AATTTGAC, the “PBM E-score” value worked out at 0.194. The same measure for CAGACCAC: -0.116; for TACCGAGA: 0.131. Under CCTAGCGA stands -0.146.

As for ATTATAAA, the “PBM E-score” value came to 0.17.

With ACTGCATC, the “PBM E-score” value is -0.206. The same measure for CGGTTAAA: 0.0871; for GAGGTTGA: -0.0528. Under GACGGTGC stands -0.164; under AGCGTTGA, -0.12; under GTGGCCAC, -0.0132. In the case of AAGACGAG, the “PBM E-score” value is -0.174.

Take ATGTCACG: the “PBM E-score” value was 0.31.

For the sequence CGATGATC, the “PBM E-score” value was -0.0829. Turning to AGGGAGGC, the “PBM E-score” value was -0.346. With ACTCGCGG, the “PBM E-score” value was -0.00017.

For the sequence GAGGCAAA, the “PBM E-score” value came to 0.0578.

ACGATAAC: the “PBM E-score” value was 0.0494. Under ACTACACT stands -0.0242; under ATCGCTCG, -0.0356; under TTTATAAA, 0.264. The same measure for ACTGGAAC: -0.0157. Under AAGCCAGT stands -0.224.

As for AGTCGATG, the “PBM E-score” value was -0.0525. Under TGGACACA stands 0.427. Under GCAGGGTA stands -0.113; under ATGAGGTG, -0.151.

With AATCCCTG, the “PBM E-score” value is -0.0745. Under GCGGCGCC stands 0.0933; under ATTGTTCG, 0.259. GCACGCCA: the “PBM E-score” value is -0.277.

With CAACCGAG, the “PBM E-score” value came to 0.0584. As for GCTCGAAA, the “PBM E-score” value is -0.00351. The same measure for TCTCTAAA: -0.0112; for CCCACCGC: -0.191; for GACCTCAA: -0.0271.

For CAGCGAAG, the “PBM E-score” value was -0.193. Under ATCTCCTG stands -0.00465; under GTATCGAA, 0.122. With CTTTTCGA, the “PBM E-score” value amounted to 0.0793. Under TATTCGCA stands -0.00765; under CGAACAAA, 0.2. Consider ATTCAGGA, for which the “PBM E-score” value was determined as 0.208. Turning to ATAGAGGC, the “PBM E-score” value is -0.178.

Turning to CCATATGA, the “PBM E-score” value came to 0.0213. The same measure for GCATGGTA: 0.0994; for AAAGAACT: -0.0159. Under CTTCACGA stands -0.286.

Consider AGTATCGC, for which the “PBM E-score” value was -0.0831. The same measure for CCCTCACA: -0.0696.
